In all, about 48,000 compounds went through this assay and about 120 (0.25%) were called active. About 4% were inconclusive and are not listed. Calls follow the shape of the dose curve; as a rule, active = well fitted activation curve with a large enough effect; inconclusive = small, poorly fitted or top-dose-only effect, or another doubt; inactive = no such curve, though single readings can be large or run the other way. Some of the results follow.
Assay: Primary qHTS for Identification of Small Molecule Activators of Huntingtin-Antisense Promoter Activity; also: nearly all actives have a fitted effect of over 55% in size
Details: HEK293 HTT-AS promoter firefly luciferase reporter, 24 h; series mostly up to 57.5 µM; activity change, positive = activation: at the top concentration
How it was run: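 HEK293 luciferase promoter-reporter cells (2,500/well) plated 24 h, then compounds added at up to 57.5 uM final for 24 h at 37 °C. Firefly luminescence by Dual-Glo, normalized to vehicle (0%) and zero RLU (-100%).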

Activity change, positive = activation, inactive:
COCCn1c(-c2ccccc2)c(C)n2c3c(=O)n(C)c(=O)n(C)c3nc12 -22.2%, Cc1ccccc1OCCn1cc(C(=O)C2CCCCC2)c2ccccc21 -5.96%, Cc1ccc(C)c(N2CCN(C(=O)Cn3cnc4sc(C)c(S(=O)(=O)N5CCN(c6ncccn6)CC5)c4c3=O)CC2)c1 -25.7%, CCNC(=O)N1CCN(CCCC(c2ccc(F)cc2)c2ccc(F)cc2)CC1 -23%, O=[N+]([O-])c1ccc(C(c2sc3nc(-c4ccco4)nn3c2O)N2CCN(Cc3ccccc3)CC2)cc1 (stereo unspecified) -8.28%, Cc1cccc(N(CC(=O)NCc2ccccc2)S(C)(=O)=O)c1C 20.2% [at 11.5 µM, percent change from vehicle, -100% = no light], Cc1ccc(C)c(NC(=O)Cn2cnc3c(oc4ccccc43)c2=O)c1 -14.1%, O=C(Nc1ccc(OCc2cc(=O)n3ccsc3n2)cc1)c1ccc(F)cc1 -8.83%, Cc1nnc(N2CCC(C(=O)NCCc3ccccc3)CC2)c2nn(-c3ccccc3)c(C)c12 -10.7%, COc1ccc(CNC(=O)CSCc2nc(-c3ccccc3F)oc2C)cc1 -15.5%, CCc1ccc(-c2nc(CN3CCC(C(=O)NCCc4ccc(C)cc4)CC3)c(C)o2)cc1 -6.19%, C=CC(=O)Nc1cc(NC(=O)c2ccc(C)c(NC(=O)c3ccno3)c2)cc(C(F)(F)F)c1 -28.1%, COc1ccc(NC(=O)C(c2ccccc2)N2Cc3ccccc3C2=O)cc1 (stereo unspecified) -3.19%, Cc1cc(C)c2c(=O)cc(C(=O)Nc3ccc(C)c(Cl)c3)oc2c1 6.37% [at 11.5 µM, percent change from vehicle, -100% = no light], Cc1ccc(C)c(NC(=O)CSc2nnc(NC(=O)Nc3ccccc3)s2)c1 2.83%, CCN1CCN(Cc2nc3cc(NC(=O)c4cccc([N+](=O)[O-])c4)ccc3n2CC)CC1 -5.5%, COc1ccc(C2CC(=O)Nc3cc4c(cc32)OCO4)c(OC)c1 (stereo unspecified) -41.2%, CCc1ccc(NC(=O)Cn2c(C(=O)OC)cc3oc(C)cc32)cc1 -10.6%, CCOC(=O)N1CCC(NC(=O)c2ccc3c(c2)N(Cc2ccc(F)cc2)C(=O)c2ccccc2S3=O)CC1 (stereo unspecified) -40.1%, COc1ccc(CCNC(=O)c2nc(SCc3ccc(F)cc3)ncc2Cl)cc1OC -38.5%, Cc1ccc(CCNC(=O)C(C)n2nc(C)c3c(C)n(-c4ccc(C)cc4)nc3c2=O)cc1 (stereo unspecified) -48%, CCCCCCC(=O)Nc1cc2nc3c(nc2cc1C)c(=O)n(C)c(=O)n3C 4.53%, COc1ccc(NC(=O)CN2CCN(C3CCCCC3)C(=O)C2=O)cc1 -8.5%, CCc1ccc(C2CC(=O)c3c([nH]c(C(=O)OC4CCCCCC4)c3C)C2)cc1 (stereo unspecified) -12.1%, CCOC(=O)c1c(C)[nH]c(C)c1S(=O)(=O)NCC(=O)Nc1cc(Cl)ccc1OC 2.22%, CC(C)C[C@H](CC(=O)O)C(=O)N[C@@H](Cc1c[nH]c2ccccc12)C(=O)N[C@@H](C)c1ccccc1 -9.91%, CC(=O)c1ccc(NC(=O)COc2ccccc2-c2nc(C(C)C)no2)cc1 -7.36%, CCOC(=O)C1CCN(S(=O)(=O)c2cc(-c3cc(C)no3)ccc2OC)CC1 -11.2%, COc1ccc(C)cc1Nc1c2c(nc3ccccc13)CCC2 -44.1%, O=C(COc1ccccc1)Nc1nnc2n1CCS2 -2.79%, Cc1ccc(NC(=O)C(Cc2ccccc2)NS(=O)(=O)c2ccc3c(c2)oc(=O)n3C)cc1C (stereo unspecified) 0%, CC(C)(C)C(=O)Cn1c(=O)n(CCCCCC(=O)NCc2ccccc2Cl)c(=O)c2sccc21 -29.9%, COc1cc(OC)cc(-c2nc3nc(C)c(CCC(=O)Nc4ccccc4)c(C)n3n2)c1 -8.53%, CC(=O)c1ccc(N2CCN(C(=O)Nc3cn(CC(C)C)c(=O)c4ccccc34)CC2)cc1 -5.83%, CCC(=O)Nc1ccc(C)cc1-c1nc2ccccc2n(CC(=O)c2ccc(C)cc2)c1=O -7.86%, CC(C)(C)OC(=O)N1CCC(c2c(C(=O)NCc3ccco3)cnn2-c2ccc(F)cc2F)CC1 -14.4%, Cc1noc2ncnc(N3CCCC(C(=O)Nc4cc(F)ccc4F)C3)c12 (stereo unspecified) -23.3%, CCOC(=O)c1c(C)c(C(=O)NCc2ccc(Cl)cc2)c(C)n1C -12%, COc1ccccc1NC(=O)C1=C(C)Nc2nc(-c3ccco3)nn2C1c1cccc(C)c1 (stereo unspecified) -20.4%, CCc1ccc(-n2c(=O)c3c(C)c(C(=O)N(C)C)sc3n(CC(=O)Nc3cc(Cl)ccc3C)c2=O)cc1 15.3%, CCOC(=O)c1c(-c2ccc(Br)cc2)csc1NC(=O)c1ccc(C(C)(C)C)cc1 -15.7%, Cc1ccc(CNC(=O)c2cc(=O)c3cc(C)c(C)cc3o2)cc1 11.1% [at 11.5 µM, percent change from vehicle, -100% = no light], COc1ccc(CNC(=O)C2CCCN(C(=O)c3cnn(-c4ccc(F)cc4)c3-n3cccc3)C2)cc1 (stereo unspecified) -30.3%, CC1CCCCN1Cc1c(O)ccc2c(=O)c(-c3ccc(Cl)cc3)coc12 (stereo unspecified) 25.8%, O=C(NCCS(=O)(=O)N1CCN(c2ccc(F)cc2)CC1)c1ccccc1Br -19.2%, COc1ccc(NC(=O)c2cc(=O)c3cc(C)cc(C)c3o2)cc1 12.1% [at 11.5 µM, percent change from vehicle, -100% = no light], Cc1nc2c(-c3ccccc3)c(C)[nH]n2c(=O)c1Cc1ccc(Br)cc1 -65.5%, CCOc1cccc2sc(NC(=O)c3ccc(S(=O)(=O)N4CCCCC4)cc3)nc12 -31.1%, CC(CNc1nc2ccccc2c2nc(-c3ccccc3)nn12)c1ccccc1 (stereo unspecified) -7.36%, COc1ccc(NC(=O)c2cc3c(=O)n(C)c4cc(Cl)ccc4c3s2)cc1Cl -10.6%, CC(=O)Nc1cccc(NC(=O)CSc2cn(CC(=O)N3CCCC3)c3ccccc23)c1 -5.16%, CC1CCN(S(=O)(=O)c2ccc3c(ccc(=O)n3CC(=O)NCc3ccccc3)c2)CC1 -20.3%, CCCS(=O)(=O)c1nc(S(=O)(=O)c2ccc(C)cc2)c(NCC(C)C)s1 -19.6%, Cc1ccc(CCNC(=O)c2oc(=O)c3ccccc3c2-c2ccc(C)cc2)cc1 -19.9%, CCc1ccc(NC(=O)Cn2cnc3nc4c(cc3c2=O)CCCC4)cc1 27.9%, CCOC(=O)c1cc2c(=O)n3ccccc3nc2n(CC(C)C)c1=NC(=O)C(C)(C)Oc1ccc(Cl)cc1 -1.76%, Cc1ccc(C(=O)N2CC(=O)Nc3ccc(Br)cc3C2c2ccc(F)cc2)cc1C (stereo unspecified) -27.1%, Cc1ccc(C)c(N2CCN(C(=O)CCc3c(C)nc4c(c3C)c(=O)n(C)c(=O)n4C)CC2)c1 -8.63%, CCN1CCN(C(=O)Cn2c(-c3cccs3)cc3cc(Cl)ccc32)CC1 -28.1%, COc1ccccc1CNC(=O)C1CCN(c2ncnc3c2nc2n3CCCCC2)CC1 3.81% [at 11.5 µM, percent change from vehicle, -100% = no light], CC(C)CCNC(=O)c1c[nH]c2ccc(S(=O)(=O)Nc3cccc(C(F)(F)F)c3)cc2c1=O -40.1%, COc1ccc(C(CNC(=O)c2oc3ccccc3c2C)N2CCCCC2)cc1 (stereo unspecified) 1.72%, CCc1ccc(-n2c3nc(=O)[nH]c(=O)c-3cc3c(C)nn(-c4ccccc4)c32)cc1 -8.41%, CCc1c(C)sc2c1CCN(C(=O)Nc1ccccc1Cl)C2c1ccc(OC)cc1 (stereo unspecified) -6.74%, Cc1cc(-n2c(SCc3ccccc3F)nc3[nH]ncc3c2=O)ccc1Cl -26%, CCCCCCCCCCCCCCCC[N+](C)(C)CC -40.8%, Cc1ccc(-c2noc(-c3ccc(NC4CCCC4)c([N+](=O)[O-])c3)n2)cc1 -4.4%, Cc1cc(Cl)ccc1NC(=O)C1CCCN1S(=O)(=O)c1ccc2c(c1)CCCC(=O)N2 (stereo unspecified) -34%, CC(C)(C)OC(=O)N1CCC(c2nnc(SCc3ccccc3Cl)o2)CC1 -30.7%, CS(=O)(=O)c1ncc(N(Cc2ccco2)Cc2cccs2)c(C(=O)Nc2ccccc2F)n1 -20%, COc1ccc(Cl)cc1NC(=O)C(C)n1c(=O)cc(C(F)(F)F)c2c(C)nn(C)c21 (stereo unspecified) -16.1%, Cc1ccc(Cn2ccn(Cc3ccc(C)cc3)c(=O)c2=O)cc1 -4.19%, CC1CCc2onc(C(=O)N3CCN(c4ccc(Cl)cc4)CC3)c2C1 (stereo unspecified) -15%, COc1ccc(N2C(=O)NC(NS(=O)(=O)c3ccc(NC(C)=O)cc3)(C(F)(F)F)C2=O)cc1 (stereo unspecified) -8.72% [at 11.5 µM, percent change from vehicle, -100% = no light], CCOc1ccc(CNC(=O)CCCn2nc(C)c3c(C)n(-c4ccc(C)cc4)nc3c2=O)cc1 -10.6%, CCOC(=O)OC(C)OC(=O)[C@@H]1N2C(=O)[C@@H](NC(=O)[C@H](N)c3ccccc3)[C@H]2SC1(C)C (stereo partly specified) 0.213%, Cc1ccc(-n2c(=O)c3oc4ccccc4c3n(Cc3ccccc3)c2=O)cc1C -15.4%, Cc1ccc(-c2noc(-c3nnn(CC(=O)Nc4ccc(C)cc4Cl)c3N)n2)cc1 -10.1%, Cc1cc(C)cc(NS(=O)(=O)c2ccc3[nH]cc(C(=O)N4CCCCC4)c(=O)c3c2)c1 -4.48%, CCOc1ccccc1CNC(=O)c1ccc2c(c1)N(CC)CCS2 -14.6%, COc1cccc(CNC(=O)C(Cc2ccccc2)NS(=O)(=O)c2ccc3c(c2)CCN3C(C)=O)c1 (stereo unspecified) 10.1%, CCOc1cc2c(cc1OCC)C(CC(=O)OC)N(C(=O)Nc1cc(C)cc(C)c1)CC2 (stereo unspecified) 6.89%, Cc1ccc(NC(=O)CCc2nc(-c3ccccc3F)no2)c(C)c1 -16.8%, COc1cc(C(=O)Nc2sc3c(c2C#N)CCCC3)c(Br)c(OC)c1OC -33.2%, Cc1cccc(OCC(=O)Nc2nnc(S(=O)(=O)N3CCCCCC3)s2)c1 -17.3%, CS(=O)(=O)c1ncc(Cl)c(C(=O)N(Cc2ccc(Cl)cc2)Cc2ccco2)n1 -94.3%

Source: PubChem BioAssay AID1508624 (National Center for Advancing Translational Sciences (NCATS), 2021)
